# The whole screen tested about 390,000 compounds, of which about 150 (0.038%) were called active. Roughly 3% stayed inconclusive and do not appear here. Calls come from the whole dose curve; as a rule, active = well fitted inhibition curve with a large enough effect; inconclusive = small, poorly fitted or top-dose-only effect; inactive = no such curve, though single readings can be large or run the other way. The entries are a selection whose mix differs from that of the whole data set. Where a structure was tested more than once in an assay, its records may differ in their call.
# Biological target: Regulator of G-protein signaling 4 (Homo sapiens) (UniProt P49798)
# Chain of UniProt P49798 (P49798 whole entry, looked up): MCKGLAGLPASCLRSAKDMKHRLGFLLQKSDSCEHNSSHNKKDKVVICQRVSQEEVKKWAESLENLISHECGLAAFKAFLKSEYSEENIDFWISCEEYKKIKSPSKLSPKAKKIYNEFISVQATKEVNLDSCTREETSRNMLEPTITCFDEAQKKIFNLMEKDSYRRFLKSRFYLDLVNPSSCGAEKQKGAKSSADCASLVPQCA
# Assay: Inhibitors of Regulator of G Protein Signaling (RGS) 4: qHTS; note: nearly all actives have a fitted effect of over 75% in size
# Conditions: Transcreener GDP fluorescence polarization, RGS4-accelerated GTP hydrolysis; series mostly up to 114 µM; activity change, negative = inhibition: at the top concentration
# How it was run: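 MLSMR compounds (23 nl, pin-transferred) preincubated 10 min at room temperature with a 500nM (2x) first reagent, then RGS4 at 900nM (2x) plus Transcreener GDP mix added; fluorescence polarization (620/688 nm) read before and after 90 min at 30 °C.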
# % is set by controls: 0 for no effect and ±100 for the full control effect; potency is the fitted concentration of half-maximal effect.
Structure (SMILES),"activity change, negative = inhibition",Potency
COc1ccc(NC(=O)Cn2nnc(C(=O)NCc3ccco3)c2N)c(OC)c1,inactive: -23.9%,–
CC(=O)[C@H]1CC[C@H]2[C@@H]3CC=C4C[C@@H](O)CC[C@]4(C)[C@H]3CC[C@]12C,inactive: 15.7%,–
CCOCCCNC(=O)C(NC(=O)C1CCC(=O)N1)c1ccc(C)cc1 (stereo not given),inactive: 63.6%,–
Oc1ccc(NCc2ccccc2OCc2ccccc2)cc1,inactive: -52%,–
CC(C)c1ccc2c(c1)c(SC(C)(C)C)c(CC(C)(C)C(=O)O)n2Cc1ccc(Cl)cc1,inactive: -20.3%,–
C[C@H]1C=C(C(=O)NCc2nc3ccccc3[nH]2)O[C@@H](OCCCCO)C1,inactive: -9.88%,–
COc1ccccc1NC(=O)Cn1c(=O)sc2ccccc21,inactive: 56.3%,–
O=c1[nH]c2ccccc2n2c(-c3ccccc3)nnc12,inactive: -122%,–
CCOC(=O)N1CCC(NS(=O)(=O)c2cc3c(cc2C)NC(=O)CO3)CC1,inactive: 65.6%,–
Nc1ncnc2c1ncn2C1CCCO1 (stereo not given),inactive: 5.23%,–
CCS(=O)(=O)N1CCC[C@H]2CN3CCc4cc(OC)ccc4[C@@H]3C[C@@H]21,inactive: -56.1% [at 56.9 µM],–
O=C(Nc1cc(S(=O)(=O)N2CCCCC2)ccc1O)c1ccccc1NS(=O)(=O)c1ccc(F)cc1,inactive: -14.3%,–
O[C@@H]1[C@@H](O)C=C2CCN3Cc4cc5c(cc4[C@H]1C23)OCO5 (stereo not given in full),inactive: 16%,–
Cn1c2ccccc2c2cc(/C=N/NC(=O)c3ccccc3F)ccc21,inactive: 56.9%,–
CCOC(=O)C1CCCN(C(=O)c2cc3cc(Br)ccc3oc2=O)C1 (stereo not given),inactive: 65.8%,–
Cc1ccc(NC(=O)C2CCN(S(=O)(=O)c3ccc4c(c3)NC(=O)CO4)CC2)cc1,inactive: 65.6%,–
CC1=C(/C=C/C(C)=C/C=C/C(C)=C\C(=O)O)C(C)(C)CCC1,–,inactive
CSc1ccc2c(c1)N(CCC1CCCCN1C)c1ccccc1S2 (stereo not given),–,inactive
OCC[C@H]1C[C@H](O)[C@@H](O)[C@]2(CCc3ccccc3CO2)O1,inactive: 26%,–
NC(CS(=O)O)C(=O)O (stereo not given),inactive: -19.7%,–
COC(=O)/C=C1\SC(=NC(=O)c2ccc(OC)cc2)NC1=O,inactive: -40.1%,–
C/C=C/c1ccc(OCC(=O)NCc2ccccc2OC)c(OC)c1,inactive: 54.1%,–
Cc1cc(C)c2c(CC(=O)NN(C)C)coc2c1,inactive: 79.6%,–
CCCCNc1c(C(=O)OCC)c(C)nc2c1cnn2CC,–,inactive

Structure (SMILES),"activity change, negative = inhibition",Potency
CN(Cc1ccco1)S(=O)(=O)c1nnc(NC(=O)c2ccccc2Cl)s1,inactive: -18.1%,–
CC1=C(/C=C/C(C)=C\C=C\C(C)=C\C(=O)O)C(C)(C)CCC1,inactive: 90% [at 56.9 µM],–
CCCN(CCC)CCCNC(=O)c1cc2c(-c3ccc(OC)c(OC)c3)nn(C)c2s1,inactive: 22.3%,–
COc1cc(C2CC(=O)C=C(O)C2)cc(OC)c1OC (stereo not given),inactive: 54.8%,–
O=C1c2ccsc2SCCN1Cc1c(Cl)cccc1Cl,inactive: 153%,–
C#CCn1c(=O)c2c(ncn2C)n(C)c1=O,inactive: -9.65%,–
COc1ccc(C(=O)N2CC3(C)CC2CC(C)(C)C3)cc1OC (stereo not given),inactive: 65.1%,–
N#C/C(=C\c1ccc(O)c(O)c1)C(=O)NCc1ccccc1,inactive: -8%,–
CCN(CC)C(=O)CSC1=C(C#N)C(c2ccco2)C(C(=O)OCCOC)=C(C)N1 (stereo not given),inactive: 21.4%,–
CCN(c1nc(N)c(C(=O)N=C(N)N)nc1Cl)C(C)C,inactive: 9.22%,–
CC(=O)c1cccc(NC(=O)Cn2c(=O)oc3cc(S(=O)(=O)N4CCCC4)ccc32)c1,inactive: -27.6%,–
CSc1ccccc1C(=O)NCc1ccccc1C,inactive: 55.3%,–
O=C(NCc1cccc(Cl)c1)C1CCCN(c2ncnc3c2nc2n3CCCCC2)C1 (stereo not given),inactive: 66.1%,–
O=C1NC(O)=NC1(c1ccccc1)c1ccccc1,inactive: -15.8% [at 56.9 µM],–
CN(C)C/C=C(\c1ccc(Br)cc1)c1cccnc1,–,inactive
CN1Cc2c(N)cccc2C(c2ccccc2)C1 (stereo not given),–,inactive
CC(=O)O[C@H]1C(=O)[C@]2(C)[C@H]([C@H](OC(=O)c3ccccc3)[C@]3(O)C[C@H](OC(=O)[C@H](O)[C@@H](NC(=O)c4ccccc4)c4ccccc4)C(C)=C1C3(C)C)[C@]1(OC(C)=O)CO[C@@H]1C[C@@H]2O,inactive: 2.09%,–
O=C1NC(=O)C(c2ccccc2)(c2ccccc2)N1,–,inactive
CCCCC(C=O)NC(=O)C(CC(C)C)NC(=O)OCc1ccccc1 (stereo not given),inactive: -159% [at 56.9 µM],–
Cc1ccc(/C=C2\C(=O)ON=C2c2ccccc2)o1,inactive: -37.2%,–
CN[C@@H]1CC[C@H](c2ccc(Cl)c(Cl)c2)c2ccccc21,inactive: -28.5%,–
CC1CCC(NC(=O)c2nn(C)c3c2CS(=O)(=O)c2ccccc2-3)CC1 (stereo not given),inactive: 60.8%,–
CNC(=O)[C@H]1O[C@@H](n2cnc3c(NCc4cccc(I)c4)nc(Cl)nc32)[C@H](O)[C@@H]1O,inactive: -20.9%,–
N#CC(C#N)=C(N)/C(C#N)=C/c1cc(O)c(O)c(O)c1,inactive: -37.8%,–

Structure (SMILES),"activity change, negative = inhibition",Potency
CCN(CC)CCCCCCCCOC(=O)c1cc(OC)c(OC)c(OC)c1,inactive: 22.2%,–
CCCCNC(=S)NNC(=O)c1ccncc1,inactive: 66.3%,–
C=CCc1cccc(C=NNC(=O)CN2CCN(Cc3ccccc3)CC2)c1O,inactive: 12.6% [at 56.9 µM],–
c1ncc(CC2CCNCC2)[nH]1,inactive: -24.4% [at 56.9 µM],–
Cn1ccc2cc3c(cc21)CCN3C(=O)Nc1cccnc1,inactive: -43.7%,–
O=c1cc(-c2ccccc2)oc2cccc(O)c12,inactive: -10.2%,–
CCOC(=O)Nc1ccc2c(c1)N(C(=O)OCCN(C)C)c1ccccc1CC2,inactive: -32.7%,–
Cc1cc(N)c2ccccc2[n+]1CCCCCCCCCC[n+]1c(C)cc(N)c2ccccc21,–,active: 23.8 µM
CN(C)[C@@H]1CCC[C@@H]1OC(=O)C(c1ccccc1)c1ccccc1,inactive: 27.5%,–
COc1cccc(NC(=O)CSc2nc3ccccc3n2C)c1,inactive: -9.15%,–
C=CCC1C=C(Cc2ccccc2)CC(CC=C)N1 (stereo not given),inactive: 20%,–
OCC[C@H]1C[C@H](O)[C@@H](O)[C@]2(OCCc3ccccc32)O1,inactive: 23.4%,–
CNC1(C)[C@H]2CC[C@H](C2)C1(C)C (stereo not given in full),inactive: 15.3%,–
CN(C)/C=C1\C=C(c2ccccc2)OC1=O,inactive: -50.8%,–
NC(CO)C(=O)NNCc1ccc(O)c(O)c1O (stereo not given),–,active: 9.47 µM
CC(OC(=O)c1snc(C(=O)NC2CCCCC2)c1N)C(=O)NC(C)(C)C (stereo not given),inactive: 55.5%,–
COc1ccc(NC(=O)COc2ccc(-c3nn(C)c(=O)c4ccccc34)cc2)cc1,inactive: -31.6%,–
Cc1ccc(N2C(=O)/C(=C/c3ccco3)SC2=S)cc1,inactive: -25.3%,–
CC(/C=N/n1c(-c2ccco2)n[nH]c1=S)=C\c1ccccc1,inactive: -35.1%,–
O=C1NC(=O)/C(=C/c2ccc(N3CCOCC3)o2)N1,inactive: -24.6%,–
OCCC1CN(Cc2ccsc2)CCN1C1CCCC1 (stereo not given),inactive: 72.8%,–
C[C@]1(C2CCCC2)Cc2cc(OCC(=O)O)c(Cl)c(Cl)c2C1=O,inactive: -3.49%,–

# From PubChem BioAssay AID504845 (National Center for Advancing Translational Sciences (NCATS), 2011)
